Data: a compilation of properties of binary mixtures (doi:10.1016/j.fluid.2012.10.004)
Some of these densities may be calculated back from excess volumes.

Experiment: xn = mol fraction of the nth substance listed
Conditions: 313.15 K, 101 kPa

SMILES | mass density (x2 = 0.0525) [kg/m3] | mass density (x2 = 0.0947) [kg/m3] | mass density (x2 = 0.3802) [kg/m3] | mass density (x2 = 0.4906) [kg/m3] | mass density (x2 = 0.6982) [kg/m3] | mass density (x2 = 0.8939) [kg/m3] | mass density (x2 = 0.0504) [kg/m3] | mass density (x2 = 0.1252) [kg/m3] | mass density (x2 = 0.2309) [kg/m3] | mass density (x2 = 0.3429) [kg/m3] | mass density (x2 = 0.5636) [kg/m3] | mass density (x2 = 0.6495) [kg/m3] | mass density (x2 = 0.7497) [kg/m3] | mass density (x2 = 0.839) [kg/m3]
CCCCCC[n+]1ccn(C)c1.O=S(=O)([O-])C(F)(F)F + CCO | 1219.8 | 1214.6 | 1170.7 | 1144.9 | 1071.5 | 931.5 |  |  |  |  |  |  |  | 
CCCn1cc[n+](C)c1.O=S(=O)([N-]S(=O)(=O)C(F)(F)F)C(F)(F)F + CCO |  |  |  |  |  |  | 1451.2 | 1438 | 1417.4 | 1390 | 1312.1 | 1265.8 | 1194.3 | 1101.4
